# Data as given in the supplement of paper PMC8728848.
# The list shows a part of the results.
# B1: a L Fucosidase (Streptosporangium roseum), D2B1P1_STRRD (protein)
# chain: MRRKLLLVPAVGLLVIGSIFATQPVASADTPPVYEPTVESLNSHPVPQWFNDDKFGIFIHWGAYSVPAWGPRGSYAEWYGNYMNAGGSATNAHHKATYGQDFNYDAFLQQWKAEKFDPADWVKLFKDAGAKYFVLTSKHHEGMALWDSKSSGRDSVDLGPGRDLAKELFDAARKDEAKLKAGFYYSLYEWYNPAYTGRPATNPYTGAEIPYTGAPGGGDYVKDYMLPQMRELIDGYDPDIIWCDGQWEKPASYWNTAGVIADYYNKALNSGKEVAVANRCKIQSGNLDSPELDFQTPEYTVKPDIDPVKWESSRGIAHSYGYNQNEPEEDHLTSDQLVDSLVDIVSKNGNLLLDIGPKADGTIPEIQRQRLLDIGAWLKANGEAIYGTTYWNRAEEKGGPDDVRYTAKDATLYATALKWPGEQLTLGADLPVDHSTRITMLGSGARLSWSRDEQGRVVVNTPQEAGKHAYVFKIETPGVRSLLRTSSSLAKEIAPGRTISGELTVTNPGKRHTPATKLSLTVPQGWTATLGAPRVRPLGPGESVKVPISVSAPEGVAPAPYTLGLYQRTGRMGTTTALPLTVNRPNLSLGKPATQKSTGYDAPASRAVDGNTGGDWSAGSTTHTAEPEKQAWWQVDLGASARLDSVDVWNRLDCCADRLKDFWVMASDQPFTTDDLDQARTAPGVTAVHVGEQAGSPSKVKLPEGTRGRYVRIQLASPSNPLSLAEVQVRGSMARPNLSLGKPATQKSTGYDAPASRAVDGNTGGDWSAGSTTHTAEPEKQAWWQVDLGASARLDSVDVWNRLDCCADRLKDFWVMASDQPFTTDDLDQARTAPGVTAVHVGEQAGSPSKVKLPEGTRGRYVRIQLASPSNPLSLAEVQVRLEHHHHHHS
# Experiments:
# Assay in all cases: glycan array binding signal (z-score within array); higher = stronger binding
# Conditions in all cases: glycan notation: IUPAC condensed, linker removed
# [1] = target: Gal(b1-3)GlcNAc(b1-2)Man(a1-3)[Gal(b1-3)GlcNAc(b1-2)Man(a1-6)]Man(b1-4)GlcNAc(b1-4)GlcNAc
# In short: (§1)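 Columns mapping to the same glycan were averaged after glycan names were converted to IUPAC-condensed notation. The data come from 3228 arrays in the Consortium for Functional Glycomics database, limited to those with an available protein sequence. Binding is reported as a within-array Z-score averaged across arrays of one protein sequence and across linkers.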
# [2] = target: Gal(b1-3)GlcNAc(b1-2)Man(a1-3)[Gal(b1-3)GlcNAc(b1-2)Man(a1-6)]Man(b1-4)GlcNAc(b1-4)[Fuc(a1-6)]GlcNAc
# In short: as §1
# [3] = target: Gal(b1-3)GlcNAc(b1-2)Man(a1-3)[GlcNAc(b1-4)][Gal(b1-3)GlcNAc(b1-2)Man(a1-6)]Man(b1-4)GlcNAc(b1-4)GlcNAc
# In short: as §1
# [4] = target: Gal(b1-3)GlcNAc(b1-2)[Gal(b1-3)GlcNAc(b1-6)]Man(a1-6)[Gal(b1-3)GlcNAc(b1-2)Man(a1-3)]Man(b1-4)GlcNAc(b1-4)GlcNAc
# In short: as §1
# [5] = target: Gal(b1-3)GlcNAc(b1-3)Gal(b1-3)GlcNAc
# In short: as §1
# [6] = target: Gal(b1-3)GlcNAc(b1-3)Gal(b1-4)Glc
# In short: as §1
# [7] = target: Gal(b1-3)GlcNAc(b1-3)Gal(b1-4)GlcNAc
# In short: as §1
# [8] = target: Gal(b1-3)GlcNAc(b1-3)Gal(b1-4)GlcNAc(b1-2)Man(a1-3)[Gal(b1-3)GlcNAc(b1-3)Gal(b1-4)GlcNAc(b1-2)Man(a1-6)]Man(b1-4)GlcNAc(b1-4)GlcNAc
# In short: as §1
# [9] = target: Gal(b1-3)GlcNAc(b1-3)Gal(b1-4)GlcNAc(b1-2)[Gal(b1-3)GlcNAc(b1-3)Gal(b1-4)GlcNAc(b1-6)]Man(a1-6)[Gal(b1-3)GlcNAc(b1-3)Gal(b1-4)GlcNAc(b1-2)Man(a1-3)]Man(b1-4)GlcNAc(b1-4)[Fuc(a1-6)]GlcNAc
# In short: as §1
# [10] = target: Gal(b1-3)GlcNAc(b1-3)Gal(b1-4)GlcNAc(b1-3)Gal(b1-4)GlcNAc(b1-2)[Gal(b1-3)GlcNAc(b1-3)Gal(b1-4)GlcNAc(b1-3)Gal(b1-4)GlcNAc(b1-6)]Man(a1-6)[Gal(b1-3)GlcNAc(b1-3)Gal(b1-4)GlcNAc(b1-3)Gal(b1-4)GlcNAc(b1-2)Man(a1-3)]Man(b1-4)GlcNAc(b1-4)[Fuc(a1-6)]GlcNAc
# In short: as §1
# [11] = target: Gal(b1-3)GlcNAc(b1-3)Gal(b1-4)GlcNAc(b1-6)[Gal(b1-3)GlcNAc(b1-3)]Gal(b1-4)Glc
# In short: as §1
# [12] = target: Gal(b1-3)GlcNAc(b1-3)Gal(b1-4)[Fuc(a1-3)]GlcNAc
# In short: as §1
# [13] = target: Gal(b1-3)GlcNAc(b1-3)Gal(b1-4)[Fuc(a1-3)]GlcNAc(b1-6)[Gal(b1-3)GlcNAc(b1-3)]Gal(b1-4)Glc
# In short: as §1
# [14] = target: Gal(b1-3)GlcNAc(b1-3)GalNAc
# In short: as §1
# [15] = target: Gal(b1-3)GlcNAc(b1-6)Gal(b1-4)GlcNAc
# In short: as §1
# [16] = target: Gal(b1-3)GlcNAc(b1-6)GalNAc
# In short: as §1
# [17] = target: Gal(b1-3)GlcNAc(b1-6)[Gal(b1-3)]GalNAc
# In short: as §1
# Gal(b1-3)GlcNAc6S = target: Gal(b1-3)GlcNAc6S
# In short: as §1
# [18] = target: Gal(b1-3)[Fuc(a1-4)]GlcNAc
# In short: as §1
# [19] = target: Gal(b1-3)[Fuc(a1-4)]GlcNAc(b1-2)Man
# In short: as §1
# [20] = target: Gal(b1-3)[Fuc(a1-4)]GlcNAc(b1-2)Man(a1-3)[Gal(b1-3)[Fuc(a1-4)]GlcNAc(b1-2)Man(a1-6)]Man(b1-4)GlcNAc(b1-4)[Fuc(a1-6)]GlcNAc
# In short: as §1
# [21] = target: Gal(b1-3)[Fuc(a1-4)]GlcNAc(b1-3)Gal(b1-3)[Fuc(a1-4)]GlcNAc
# In short: as §1
# [22] = target: Gal(b1-3)[Fuc(a1-4)]GlcNAc(b1-3)Gal(b1-4)[Fuc(a1-3)]GlcNAc
# In short: as §1
# [23] = target: Gal(b1-3)[Fuc(a1-4)]GlcNAc(b1-6)GalNAc
# In short: as §1
# [24] = target: Gal(b1-3)[GlcNAc(b1-6)]GalNAc
# In short: as §1
# [25] = target: Gal(b1-3)[Neu5Ac(a2-6)]GalNAc
# In short: as §1
# [26] = target: Gal(b1-3)[Neu5Ac(a2-6)]GlcNAc(b1-4)Gal(b1-4)Glc
# In short: as §1
# [27] = target: Gal(b1-3)[Neu5Ac(b2-6)]GalNAc
# In short: as §1
# Gal(b1-4)Gal = target: Gal(b1-4)Gal
# In short: as §1
# [28] = target: Gal(b1-4)GalNAc(a1-3)[Fuc(a1-2)]Gal(b1-4)GlcNAc
# In short: as §1
binder,measurement,setting,value
B1,glycan array binding signal (z-score),[1],-0.357
same,glycan array binding signal (z-score),[2],-0.264
same,glycan array binding signal (z-score),[3],1.88
same,glycan array binding signal (z-score),[4],-0.053
same,glycan array binding signal (z-score),[5],-0.373
same,glycan array binding signal (z-score),[6],-0.317
same,glycan array binding signal (z-score),[7],-0.177
same,glycan array binding signal (z-score),[8],-0.381
same,glycan array binding signal (z-score),[9],-0.343
same,glycan array binding signal (z-score),[10],-0.126
same,glycan array binding signal (z-score),[11],-0.27
same,glycan array binding signal (z-score),[12],0.228
same,glycan array binding signal (z-score),[13],-0.561
same,glycan array binding signal (z-score),[14],-0.161
same,glycan array binding signal (z-score),[15],-0.601
same,glycan array binding signal (z-score),[16],-0.197
same,glycan array binding signal (z-score),[17],-0.234
same,glycan array binding signal (z-score),Gal(b1-3)GlcNAc6S,-0.504
same,glycan array binding signal (z-score),[18],-0.167
same,glycan array binding signal (z-score),[19],0.436
same,glycan array binding signal (z-score),[20],0.118
same,glycan array binding signal (z-score),[21],0.302
same,glycan array binding signal (z-score),[22],-0.103
same,glycan array binding signal (z-score),[23],-0.215
same,glycan array binding signal (z-score),[24],-0.548
same,glycan array binding signal (z-score),[25],-0.356
same,glycan array binding signal (z-score),[26],-0.397
same,glycan array binding signal (z-score),[27],-0.23
same,glycan array binding signal (z-score),Gal(b1-4)Gal,-0.166
same,glycan array binding signal (z-score),[28],-0.33
